Measured values reported in PubChem BioAssay AID463173 (ICCB-Longwood Screening Facility, Harvard Medical School, 2010).
In all, about 52,000 compounds went through this assay and about 1,700 (3.3%) were called active. Cut-off read from the data, not from the text of the source: active = survival mostly below about 52% (no sharp cut-off); inactive = mostly above about 56%. Some of the results follow.

These molecules were tested on Wild type (assay: S. aureus survival, RN4220 and DeltatarO strains – OD600, teichoic acid synthesis inhibitors, primary screen (AID 463173)). Settings: S. aureus RN4220 wild type/DeltatarO growth, OD600, 18 h, hits give low values, screened at 18.75 µg/mL (by protocol).

Row | SMILES | survival
1 | COc1cc2c(cc1OC)C(COc1ccccc1OC)N(C(=O)c1ccc(S(=O)(=O)N3CCCC3)cc1)CC2 (stereo not given) | active: 0%
2 | CCOc1ccccc1NC(=O)c1c(NC(=O)Cc2ccccc2)sc2c1CCCC2 | inactive: 87%
3 | Cc1cc(C)c(S(=O)(=O)Nc2ccc(-c3ccc(N4CCCCC4)nn3)cc2)c(C)c1 | inactive: 98%
4 | CCC(C)NC(=O)C1CCCN(S(=O)(=O)c2ccc(C)c(Cl)c2)C1 (stereo not given) | inactive: 109%
5 | COc1ccc(C)cc1NC(=O)CN1CCCN(S(=O)(=O)c2ccc(Br)cc2)CC1 | inactive: 124%
6 | CCNc1ccc2noc3c2c1C(=O)c1ccccc1-3 | inactive: 130%
7 | Cn1cc(C(=O)N2CCN(c3cccc(Cl)c3)CC2)c(=O)c2cc(S(=O)(=O)N3CCCC3)ccc21 | inactive: 132%
8 | COCCCNC(=O)CN1C(=O)COc2ccc(S(=O)(=O)N3CCOCC3)cc21 | inactive: 116%
9 | COC(=O)c1cc(OC)c(OC)c(OC)c1NC(=O)c1cc(=O)n(C)c(=O)n1C | inactive: 85%
10 | CCOc1ccc(NC(=O)CSc2ccc3ccccc3n2)cc1 | inactive: 67%
11 | COC(=O)c1cccc(Nc2c(-c3ccc(O)cc3)nc3nc[nH]n23)c1 | inactive: 148%
12 | COc1ccc(N2CCN(C(=O)c3cn(C4CCCCC4)c(=O)c4c3c3ccccc3n4C)CC2)cc1 | inactive: 75%
13 | NC(=O)CSc1nc2ccccc2c(=O)n1Cc1ccco1 | inactive: 111%
14 | COC(=O)CSCc1nc(-c2ccc(C(=O)OC)cc2)oc1C | inactive: 80%
15 | O=C(CCNS(=O)(=O)c1cccc2nonc12)Nc1ccc(F)cc1 | inactive: 63%
16 | O=C(Nc1ccc(F)cc1F)c1cc2ccc3cccnc3c2[nH]1 | inactive: 65%
17 | Cc1cccc(C)c1NC(=O)N1CCC(C(N)=O)(N2CCCCC2)CC1 | inactive: 106%
18 | Cc1ccccc1Nc1cc(C(=O)NC2CCC(C)CC2)c2ccccc2n1 (stereo not given) | inactive: 92%
19 | CCOC(=O)c1ccc(NC(=O)c2c(NCc3cccc(OC)c3)sc3c2CCC3)cc1 | inactive: 68%
20 | CN1CCN(Cc2nnnn2CC2CCCO2)CC1 (stereo not given) | inactive: 106%
21 | O=C(CCCOc1ccccc1)Nc1nccs1 | inactive: 98%
22 | CC(C)c1ccc(C(=O)Nc2ccc(-c3nc4ccccc4s3)c(Cl)c2)cc1 | inactive: 141%
23 | COc1cccc(-n2c(-c3ccco3)nc3c(cnn3-c3ccccc3C)c2=O)c1 | inactive: 94%

Row | SMILES | survival
24 | COc1cccc(C(=O)NCC(c2ccc(N(C)C)cc2)N2CCc3ccccc32)c1OC (stereo not given) | inactive: 74%
25 | COc1ccc2oc(-c3ccc(C)c(NC(=O)c4sc5ccccc5c4Cl)c3)nc2c1 | inactive: 65%
26 | Cn1cc(S(=O)(=O)N2CCCCCC2)cc1C(=O)Nc1ccccc1F | inactive: 78%
27 | COc1ccc(-c2nc(Cn3c(SCc4cccc(F)c4)nc4cccnc43)c(C)o2)cc1 | inactive: 71%
28 | Cc1cccc(OCC(=O)Nc2c(C(=O)N3CCN(c4ccccc4)CC3)oc3ccccc23)c1 | inactive: 86%
29 | COc1ccc(N2CCN(c3oc(-c4ccccc4C)nc3S(=O)(=O)c3ccccc3)CC2)cc1 | inactive: 116%
30 | COc1cc(NC(=O)Cn2nc(Cc3cccnc3)c3ccccc3c2=O)cc(OC)c1OC | inactive: 67%
31 | CCc1nc2ccccc2n1CCCCOc1ccc(Cl)cc1 | active: 2%
32 | CCCCN(CCCC)S(=O)(=O)c1ccc(C(=O)Nc2sc3c(c2C(N)=O)CCN(CC)C3)cc1 | inactive: 68%
33 | CCOc1ccccc1CNC(=O)CCCn1nc(C)c2sc3ccccc3c2c1=O | inactive: 88%
34 | Cc1cccc(CSc2nc3ccncc3n2Cc2ccc(C(=O)O)cc2)c1 | inactive: 82%
35 | O=C(Nc1ccc(-c2cn3cccnc3n2)cc1)c1ccccc1F | inactive: 87%
36 | Cc1ccc(OCc2ccc(-c3nc(C#N)c(N4CCN(c5cccc(Cl)c5)CC4)o3)o2)cc1 | inactive: 94%
37 | O=C(CSc1nnnn1Cc1ccccc1)Nc1ccccc1 | inactive: 114%
38 | COc1cc(NC(=O)Cn2nc(C(F)(F)F)c3c2CCCC3)cc(OC)c1OC | inactive: 93%
39 | COc1ccccc1NC(=O)Cn1c(=O)n(CCc2ccccc2)c(=O)c2sc3ccccc3c21 | inactive: 76%
40 | CCC1CN(C(=O)N2CCC(C(=O)NCCCc3ccccc3)CC2)c2ccccc2O1 (stereo not given) | inactive: 101%
41 | COc1ccc(NC(=O)c2cc3ccc(O)cc3o/c2=N\O)cc1 | inactive: 107%
42 | Cc1ccc(S(=O)(=O)N(CC(=O)O)CC(=O)O)cc1 | inactive: 105%
43 | Cc1cc(C)cc(NS(=O)(=O)N(C)C)c1 | inactive: 113%
44 | CCN1CCN(c2cc(C)c3cc(NC(=O)c4cc(Br)ccc4Cl)ccc3n2)CC1 | inactive: 57%
45 | CCCC12CN3CC(C)(CN(C1)C3c1cn(CC)c3ccccc13)C2=O (stereo not given) | inactive: 83%
46 | O=C(NCc1ccccc1Cl)c1ccc2nc(Cc3ccccc3)oc2c1 | inactive: 47%

Row | SMILES | survival
47 | CCC(=O)N1c2ccccc2CC1C(=O)NCCN1CCN(c2cccc(Cl)c2)CC1 (stereo not given) | inactive: 85%
48 | CC(=O)N1CCCc2cc(S(=O)(=O)N3CCC(C(=O)NCc4ccccc4Cl)CC3)ccc21 | inactive: 121%
49 | COCCCNC(=O)CSc1nc(-c2ccc(OC)cc2)[nH]c1-c1ccc(OC)cc1 | inactive: 87%
50 | CN(CC(=O)Nc1ccc2c(c1)OCO2)Cc1ccccc1 | inactive: 110%
51 | CC(C)n1nnnc1SCC(=O)OC1CCCCC1 | inactive: 127%
52 | CCOC(=O)c1c(C)[nH]c(CCC(=O)Nc2ccccc2OCC)c1C | inactive: 83%
53 | COc1ccc2oc(=O)cc(CN3CCN(c4ccccc4OC)CC3)c2c1 | inactive: 84%
54 | Cc1nn(CCC(=O)N2CCN(c3ccccc3F)CC2)c(C)c1S(=O)(=O)N1CCCC1 | inactive: 120%
55 | COc1ccc(C(=O)Nc2cc3cc(Cl)ccc3oc2=O)cc1OC | inactive: 81%
56 | COc1ccc(CNC(=O)c2ccc(CS(=O)(=O)c3ccc(OC)cc3)o2)cc1 | inactive: 87%
57 | CCN(CC)C(=O)c1sc2c(c1C)c(=O)n(-c1ccc(OC)cc1OC)c(=O)n2Cc1cc(C)ccc1C | inactive: 79%
58 | COc1cccc(-c2nn(C)c3sc(C(=O)NCc4ccc(C)cc4)cc23)c1 | inactive: 70%
59 | O=C(O)C1=C(C(=O)Nc2ccc(F)c(Cl)c2)CCCC1 | inactive: 112%
60 | N#Cc1c(C(F)(F)F)cc(-c2ccco2)nc1SCc1ccncc1 | inactive: 106%
61 | CN(C)C(=O)CSc1nnc2n1C(C)(C)Cc1ccccc1-2 | inactive: 107%
62 | CC(=O)Nc1ccccc1OCc1cc(=O)n2c(C)csc2n1 | inactive: 88%
63 | CCOC(=O)c1cc(S(=O)(=O)NCc2ccc(F)cc2)[nH]n1 | inactive: 159%
64 | O=S(=O)(c1ccccc1)N1CCCC(c2nc(-c3cccs3)no2)C1 (stereo not given) | inactive: 131%
65 | Cc1ccc(-c2nc(C)c(CCNC(=O)C(=O)Nc3ccc(C)c(Cl)c3)s2)cc1 | inactive: 76%
66 | Cc1cc(=O)n2nc(N3CCC(C(=O)NCc4ccccc4F)CC3)sc2n1 | inactive: 94%
67 | CN1CCN(CCNC(=O)c2cnn(-c3cccc(Cl)c3)c2C2CCN(C(=O)OC(C)(C)C)CC2)CC1 | inactive: 70%
68 | Cc1ccc(NC(=O)CSc2ncc3c(n2)-c2ccccc2N(C)S3(=O)=O)c(Cl)c1 | inactive: 45%
69 | COc1ccc(CN(C)c2ccc(-c3nc(C)no3)cc2[N+](=O)[O-])cc1 | inactive: 74%

Row | SMILES | survival
70 | CCN(CCCNC(=O)CSc1cc(=O)n(C)c2cc(Cl)ccc12)c1ccccc1 | inactive: 75%
71 | CCC(CC)C(=O)Nc1cccc(-c2nc3ncccn3c2C)c1 | inactive: 98%
72 | CCc1ccc(CNC(=O)Cn2nc(C)c3c(C)n(-c4ccc(C)cc4)nc3c2=O)cc1 | inactive: 71%
73 | COc1ccc(CN2CCCN(CC(=O)Nc3ccc(Br)cc3F)S2(=O)=O)cc1 | inactive: 78%
74 | Cc1ccc(NCc2cccn2-c2nnc(N3CCC(C(=O)NCc4ccccc4C)CC3)s2)cc1 | inactive: 98%
75 | Cc1ccc(-n2ncc(C(=O)NCc3ccc4c(c3)OCO4)c2C2CCN(C(=O)OC(C)(C)C)CC2)cc1C | inactive: 82%
76 | Cc1c(C(=O)N2CCC(C)CC2)c(S(=O)(=O)Nc2cccc(C#N)c2)c(C)n1C | inactive: 75%
77 | Cc1c(Cl)cccc1NC(=O)c1cc(-c2cccs2)on1 | inactive: 105%
78 | CCOC(=O)c1c(C)[nH]c(C)c1S(=O)(=O)N(C)CC(=O)Nc1cccc(Cl)c1C | inactive: 69%
79 | COc1ccc(C(=O)N2CCCCC2CCN2CCOCC2)cc1 (stereo not given) | inactive: 87%
80 | Cc1cc(N2CCOCC2)nc(=S)[nH]1 | inactive: 98%
81 | CC1=C(c2ccc(C)c(C)c2)S(=O)(=O)N=C1N1CCN(c2cccc(C)c2)C(C)C1 (stereo not given) | inactive: 71%
82 | CCOc1ccc(NC(=O)CC2Nc3cccc4cccc(c34)NC2=O)cc1 (stereo not given) | inactive: 63%
83 | O=C(c1ccccc1Cl)N1CCCC(c2nc3c(nnn3Cc3ccc(F)cc3F)c(=O)[nH]2)C1 (stereo not given) | inactive: 92%
84 | CN(C(=O)CSc1nc2ccc(NC(=O)COc3ccc(F)cc3)cc2s1)c1ccccc1 | inactive: 79%
85 | CCOC(=O)c1ccc(NC(=O)C2=C(C)C(=O)OC23CCCCCC3)cc1 | inactive: 88%
86 | CC(C)Sc1ncc(Cl)c(C(=O)Nc2nc3ccc(S(C)(=O)=O)cc3s2)n1 | inactive: 112%
87 | Cc1cc(-c2ccc(S(=O)(=O)Nc3cccc(C(F)(F)F)c3)s2)on1 | inactive: 120%
88 | COC(=O)C1=NNC2(c3ccc(C)cc3)C(=O)N(c3ccc(C)cc3)C(=O)C12 (stereo not given) | inactive: 108%
89 | COc1ccc(NC(=O)Cn2c(=O)n(Cc3nc(C)no3)c(=O)c3cc4c(cc32)OCO4)cc1 | inactive: 71%
90 | Cc1cc(C)c(NC(=O)C2CCN(C(=O)N3CC(C)Oc4ccc(Cl)cc43)CC2)c(C)c1 (stereo not given) | inactive: 74%
